# Paper PMC12136788
# Where a chain is given by its changes, count along the chain named. The list shows a part of the results.
# T1: UNK ZnF1-3 (human, UniProt Q9C0B0 31-174)
# T1 sequence: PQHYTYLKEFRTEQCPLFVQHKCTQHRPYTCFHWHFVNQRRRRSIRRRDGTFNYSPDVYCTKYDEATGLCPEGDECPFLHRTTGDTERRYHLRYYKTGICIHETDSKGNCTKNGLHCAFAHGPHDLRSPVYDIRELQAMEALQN
# B1: chr2:130910683:130910684:-_ENSG00000136699_ENST00000351288|hu_hu|FALSE|FALSE (ssRNA)
# RNA: GGGAGUUCUACAGUCCGACGAUCGGAACACAGAGCCGCCAUCUGUCCUGCAAAUCUGUGGUUGAUGGCAGACGACAGCCUAAAGAGUGUGCGGACCAAGCUGGCGAUCUCAUAGCUCCGGAUGGGCUGCAGCUCCGGGUCCCCCAACAGAGGAUUGAGCAUCA
# B2: chr9:95013113:95013114:-_ENSG00000196305_ENST00000443024|hu_hu|hu_hu_hu_mus_False|88_98 (ssRNA)
# RNA: GGGAGUUCUACAGUCCGACGAUCCUCAGUCAGAAAGGGUGUGUAGGGAGCCAUAAGUCUGCACAGAGAAAGCAGGACACUGAACAGUGUCUCCAGAGCCAUGACACAGUCUUCCACCCCACUCUCACCCUUUAACCUCCUCCUCAACAGAGGAUUGAGCAUCA
# B3: chr8:22473583:22473584:+_ENSG00000158941_ENST00000389279|hu_mus|FALSE|FALSE (ssRNA)
# RNA: GGGAGUUCUACAGUCCGACGAUCAGGUUCAGGAGGAGACACAACUUUUUCUGGAAGGCUCAGCAGCGUCUUAUAAAUUCUAUAGCCAAAAUCCCUCUGCAGCAUCUCUACAAACAGCUCAGCCAGCACCACUACCUCAAAAGACAACAGAGGAUUGAGCAUCA
# B4: chr7:129114946:129114947:-_ENSMUSG00000034951_ENSMUST00000057576|mus_hu|FALSE|FALSE (ssRNA)
# RNA: GGGAGUUCUACAGUCCGACGAUCAUCAACAAGCAUCAUUAAGCUGUUCUGCAUACCUGUUAGCUUGGCAGAAAUCACAGCUAUGUCCUGAGUCUUAAAUGUCUCCUCAAUAUCGGCGCUCAACGUGCUCCACUUAUCUGCUUCCAACAGAGGAUUGAGCAUCA
# B5: chr10:33214929:33214930:-_ENSG00000150093_ENST00000302278|hu_hu|hu_hu_hu_mus_True|88_88 (ssRNA)
# RNA: GGGAGUUCUACAGUCCGACGAUCAACAAGUUCAUUGAAAAACUCUCCUUUAUUAGUAAGACUAAGCACAUUUUUGUAGCUAAAUGGGCUGGUGCAGUUUUGUUCACUUGUACAAGGAUUUCUUAGCUUUGCUGGGGUUGUGCUCAACAGAGGAUUGAGCAUCA
# B6: chr11:46405157:46405158:+_ENSG00000110492_ENST00000395566|hu_hu|hu_hu_hu_mus_False|18_98 (ssRNA)
# RNA: GGGAGUUCUACAGUCCGACGAUCCCCUCCCCACUUUGGCUGGGGAGUGUGGGCGUGAGAGGACAGGCGUGAUUGACAGAGCUGACAGGAAGACAAAAGGCACUGGUGGGUUAUAUCUCGGGCCUGGGGGAGAGGAGGGCUCCGCAACAGAGGAUUGAGCAUCA
# B7: chr10:33214929:33214930:-_ENSG00000150093_ENST00000302278|hu_hu|hu_hu_hu_mus_True|18_18 (ssRNA)
# RNA: B5 RNA with U49C, A51G, U53C, A117G, U120C, U123G
# B8: chr11:86533019:86533020:-_ENSMUSG00000047126_ENSMUST00000103186|perfect_dup|motif|central (ssRNA)
# RNA: GGGAGUUCUACAGUCCGACGAUCAAGAAGAUGGGUGUGAACCACUGCACGUUUUAUAUCAUAUAAAUCAGUGAAAUGUUCGGAUGCACGCUGCAGUAGGCCAGCCUUUUCACACAGUUGAGCAAUAUGAGCCCGGUCAUAAUGCAACAGAGGAUUGAGCAUCA
# B9: chrX:130621085:130621086:+_ENSMUSG00000031256_ENSMUST00000033609|mus_mus|motif|central (ssRNA)
# RNA: GGGAGUUCUACAGUCCGACGAUCGUAAUAUCUUAAGUAUAUUAACUGUAAUCAAAUUUGUACUAUAGUUAGAAGCCAACGGUAUUGUCACUUUGUAUUGUUUGGAAUAACUGGAAAGGCCUGACGUACAUCAUGAGAUAAUUGCAACAGAGGAUUGAGCAUCA
# B10: 57704371_57704491_741_3pUTR_ENSMUSG00000037788_ENSMUST00000114297|mouse|control|control (ssRNA)
# RNA: GGGAGUUCUACAGUCCGACGAUCAGAAUAUCCAAGUUUUCCCUUGGACCACCCUAUCAGCAAGUAUCGGUGAGGAUGGGAAGGUAAACAAAAGGGCCUGUCCAUCCUCUUUGCCUUUGAUGUAGCAUCUUGCUACUUGUCCUUCAACAGAGGAUUGAGCAUCA
# B11: 88651302_88651422_826_CDS_ENSG00000135052_ENST00000388712|human|control|control (ssRNA)
# RNA: GGGAGUUCUACAGUCCGACGAUCACUGGGGGCUGGUGUCUGGGACUUGCUGUUACCAAGCACGUUUCCCUUCCCUUGUGGCACCUCUGUGUGUGGCAGGCCUGCUGCCUGCAGCCUGGGCUGAGGCUCACUGAGGGCUUGGAGCAACAGAGGAUUGAGCAUCA
# B12: chr1:153210542:153210543:+_ENSMUSG00000023150_ENSMUST00000023918|mus_mus|motif|central (ssRNA)
# RNA: GGGAGUUCUACAGUCCGACGAUCUUGCAGUUAGCAACAUCUACCCCACCCACCCUCCUUAUUCACAAGUGUACCUCGGCGGAACACAAUUACAUCACUAAGCCUGUUAGUUUGGGGUUCUUAAAUUUGUUAAAACUGGAAAAUCAACAGAGGAUUGAGCAUCA
# B13: chr1:135975629:135975630:-_ENSMUSG00000020423_ENSMUST00000020692|mus_hu|FALSE|FALSE (ssRNA)
# RNA: GGGAGUUCUACAGUCCGACGAUCGAAGCCCACGGCGGCGGCGAUCUCCGGGAGCAUGUCGGUUCCCUUCCCGUGGCUCAUGUCGCGCGCGGCUCGGGCUCAGUGAGAGGUCUCGGGUGGGAAGUGCGGGUCCACAAGACAGCGCAACAGAGGAUUGAGCAUCA
# B14: chr3:31678068:31678069:+_ENSG00000163527_ENST00000295770|hu_hu|FALSE|FALSE (ssRNA)
# RNA: GGGAGUUCUACAGUCCGACGAUCUUUGCAUUAGAGAAACAUGAAAAUAAAUAUAAUUCAAGGAAGUAUAAUGAUUCUUCUAAUAUGUCUUUCUCAGACCUGUACUAGUUUACCGGUUCAAGAAGCUCUCAUCACAUUUUGUCACAACAGAGGAUUGAGCAUCA
# B15: 69817489_69835357_1531_3pUTR_ENSMUSG00000053477_ENSMUST00000078486|mouse|control|control (ssRNA)
# RNA: GGGAGUUCUACAGUCCGACGAUCCCAACCAUGAGCGAGUGUCUGUUGGCUGAGAGAAGACUAGUUCCGUACCCUGAGCCCAGGCUACCCAUCGCUCCGUUGUGGGAGGGUCCCAUGAUCCCAUGCAUGUCCCCAUGGCCACCACAACAGAGGAUUGAGCAUCA
# B16: chr2:85770095:85770096:+_ENSG00000168906_ENST00000306434|hu_hu|FALSE|FALSE (ssRNA)
# RNA: GGGAGUUCUACAGUCCGACGAUCAUCCAGAUCCCUGACAAUGACCCCAGGGCGGAGAUCGAAAUUCUUCUUCACAAUCUCUAAUAGCUCUCUCUCACUCUUCUGAGAGGUACCAUAAUGGAAAAUGGAGAUAGAUAAUGGAUGCAACAGAGGAUUGAGCAUCA
# B17: 112746645_112746765_1893_CDS_ENSMUSG00000046441_ENSMUST00000056972|mouse|control|control (ssRNA)
# RNA: GGGAGUUCUACAGUCCGACGAUCCUCCACAAGCUGGAUUUCCAGUGGCGCGGGCAUCUGGAGAUCACAGACGGCCGGUGAGCCCACCAGCAGGCACUUGACUGGGCCGCUGGGUUCCGCACCCUGUUCGUCCGGAAGGCACUUCAACAGAGGAUUGAGCAUCA
# B18: chr11:22897662:22897663:+_ENSMUSG00000007739_ENSMUST00000173867|mus_hu|FALSE|FALSE (ssRNA)
# RNA: GGGAGUUCUACAGUCCGACGAUCGCAAAACUGAAUAAGCCCAAUCUUGGCCUUUUCAACUCUGGUUAUGCCAGAAUUUGACACUUUUUGGGUGAGAACCAGCCCUUCCACCAACUCACAGUCAUCAAUUGUCCCACCAAGCUUCAACAGAGGAUUGAGCAUCA
# B19: 100944380_100944500_254_CDS_ENSMUSG00000001755_ENSMUST00000001806|mouse|control|control (ssRNA)
# RNA: GGGAGUUCUACAGUCCGACGAUCCUGCACAGGGCUGGCCUGAGGCUGAGCGGGUCCCCCCAGGUUCAUGCCCGGCUGCAGGUGCACAUAGAGGGUGUGAUUCACCAGGCGGGACGCCGAGGUCAGGAUGGGAGGCAGGCGUGCCAACAGAGGAUUGAGCAUCA
# B20: 67946858_67948415_764_3pUTR_ENSMUSG00000079614_ENSMUST00000025421|mouse|control|control (ssRNA)
# RNA: GGGAGUUCUACAGUCCGACGAUCAUUUGGAGCAAACGCGAUAUCAUGGACGGGGUCUGUGACUGUCAUAAGAGUCUCAGCUUUCGCAUAUUUCCUGGUAUUUUCAUUGUAUUCAAAAAUCUGAACCUUGGCCAUUGAAUUUGGCAACAGAGGAUUGAGCAUCA
# B21: chr19:54062153:54062154:+_ENSMUSG00000024976_ENSMUST00000025932|mus_hu|FALSE|FALSE (ssRNA)
# RNA: GGGAGUUCUACAGUCCGACGAUCUUGGCUGAUGGUACUUUGGGAUCUUUUUCUUUAGAGUCUUUUUCUUUUCCUAAACUACUACUCAUGGUGACUCAAGCCUGGACAAAAACUACAUGAACUCCUUUUAUUUUCCAGUAAUUGCAACAGAGGAUUGAGCAUCA
# B22: chr12:42180722:42180723:-_ENSMUSG00000036295_ENSMUST00000043884|mus_hu|mus_mus_mus_hu_True|48_48 (ssRNA)
# RNA: GGGAGUUCUACAGUCCGACGAUCCUGUAGGAGAAGAAUCUGUGUGUUAGCUGGCAAUCUGGCUGGGAAAGUUAAAAGACCUAAAUCAUUACAGUCCACUGUAGAUGCUUCCAUAUAAAUGGAUCUGGGUGUAAACCAAGGCCUCAACAGAGGAUUGAGCAUCA
# Target: T1, UNK ZnF1-3
# Assay: nsRBNS (natural sequence RNA bind-n-seq); RBNS binding buffer (assumed for nsRBNS): 25 mM Tris pH 7.5, 150 mM KCl, 3 mM MgCl2, 0.01% Triton X-100, 500 ug/ml BSA, 20 U/ml SUPERase-In, 4 C; UNK is unkempt and MSI1 is Musashi-1; names of the RNAs are library labels; protein concentration not given here; high values mean tight binding
row,Binder,binding signal
1,B1,0.822 enrichment R
2,B2,1.16 enrichment R
3,B3,2.18 enrichment R
4,B4,0.811 enrichment R
5,B5,0.64 enrichment R
6,B6,2.82 enrichment R
7,B7,0.947 enrichment R
8,B8,1.24 enrichment R
9,B9,0.932 enrichment R
10,B10,0.529 enrichment R
11,B11,0.43 enrichment R
12,B12,1.67 enrichment R
13,B13,1.14 enrichment R
14,B14,0.854 enrichment R
15,B15,0.794 enrichment R
16,B16,0.89 enrichment R
17,B17,0.788 enrichment R
18,B18,0.874 enrichment R
19,B19,2.13 enrichment R
20,B20,1.27 enrichment R
21,B21,0.711 enrichment R
22,B22,1.24 enrichment R
